Measured values from the supplement of paper PMC10338343.
± gives the standard deviation. In all, about 3,000 sequences were measured (“pre-steady-state target cleavage rate”: median about 0.0079, highest 2% from about 0.2 on). The list shows a part of the results, in another mix than the full data.

system: MILI (PIWIL2) piRISC loaded with piRNA #2 (26 nt); assay: pre-steady-state target cleavage rate (min^-1); MIWI and MILI are mouse PIWI proteins and EfPiwi is from a freshwater sponge; tags in brackets are library labels; higher = faster piRNA-guided slicing of the target; settings: guide: piRNA #2 5'p-UUAGGUAACCCAGUAGAUCCAGAGGA; auxiliary factor: 500 nM mouse GTSF1
Summary of the method: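 The pre-steady-state cleavage rate was derived from a burst-and-steady-state fit of Cleave-'n-Seq data. For these assays, 1 nM active affinity-purified piRISC loaded with a single synthetic guide was mixed with […] a transcribed, DNA-blocked target RNA library in HEPES–potassium acetate buffer at 33 °C, with or without 500 nM GTSF1 partner protein, for 0–8 or 0–960 min. Sequencing counts of uncleaved targets were normalised to depth and to weakly complementary targets, and k3 was capped at 0.0001 min^-1 after three trials were pooled.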
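Further: 1 nM active piRISC with 0.1 nM target library at 33 °C single turnover.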

CUUAUCCUCUGGAUCCACUGGGUUACCUAA and CUUAUCCCCUGGAUCUACUGGGUUACCUAA are within error of each other in “pre-steady-state target cleavage rate” value: 0.0964 ± 0.022 for the first, 0.137 ± 0.019 for the second.

CUUAAGGUCUGGAUCAACUGGGUUUCCUAA and CUUAAGCUCUCGAUCUACUGGGUUACGUAA are within error of each other in “pre-steady-state target cleavage rate” value: 0.0239 ± 0.01 for the first, 0.045 ± 0.015 for the second.

First: CUUAAGCUCUGGAUCUACUGGGUUUCCUAA
Second: CUUAAGGACUGGAUCUACUGGGUGUACCUAA
The “pre-steady-state target cleavage rate” value of the first is higher: 0.107 ± 0.025 for the first, 0.0181 ± 0.012 for the second.

Compared with CUUAAGGUCUGGAUCUACUGGGAUACCUAA, CUUAACCUCUGGAUAUACUGGGUUACCUAA is higher in “pre-steady-state target cleavage rate” value: 0.0278 ± 0.0093 for the first, 0.158 ± 0.031 for the second.

CUUAAGGAGUGGUUCUACUGGGUUUCCUAA and CUUAAGGAGUGGAUCAACUGGGUUACCUAA are within error of each other in “pre-steady-state target cleavage rate” value: 0.00611 ± 0.0051 for the first, 0.0147 ± 0.0066 for the second.

Compared with CUUAAGGAGACCAUCUACUGGUUACCUAA, CUUAAGCUCUGGAUCUUCUGGGUUACCAAA is higher in “pre-steady-state target cleavage rate” value: less than 0.0001 for the first, 0.0509 ± 0.017 for the second.

First: CUUAAGCACUGGAUCUAGUGGGUUACCUAA
Second: CUUAACCUCUGGAUGUACUGGGAUACCUAA
The “pre-steady-state target cleavage rate” value of the first is higher: 0.0804 ± 0.013 for the first, 0.0398 ± 0.017 for the second.

CUUAACCUACUGGAUCUACUGGGUUACCUAA and CUUAAGGUCUGGCUCUACUGGGUUACCUAA are within error of each other in “pre-steady-state target cleavage rate” value: 0.101 ± 0.021 for the first, 0.0939 ± 0.016 for the second.

CUUAACCUCUGGAUCUACUGGGUUACCGUAA and CUUAUCCUCUGGAUCUACUGGGUUACCGUAA are within error of each other in “pre-steady-state target cleavage rate” value: 0.103 ± 0.032 for the first, 0.0831 ± 0.02 for the second.

CUUAACGUCUGGAACUACUGGGUUACCUAA and CUUAACCUCUCGAUCUACUGGGUUAGCUAA are within error of each other in “pre-steady-state target cleavage rate” value: 0.103 ± 0.016 for the first, 0.0663 ± 0.025 for the second.

First: CUUAAGCUCUCGAUCUACUGGGUUACCAAA
Second: CUUAAGGUCUGGAUCUACUGCGUUACCUAA
The “pre-steady-state target cleavage rate” value of the first is higher: 0.119 ± 0.032 for the first, 0.0106 ± 0.0049 for the second.

Going from CUUAACCCCUGGAUCUACUGGGUUACCUAA to CUUAUCCUCUGGAUCUAGUGCGUUACCUAA, the “pre-steady-state target cleavage rate” value falls from 0.0999 ± 0.017 to 0.00427 ± 0.0028.

CUUAUCCUCUGGAUCUACUAGGGUUACCUAA and CUUAAGGUCUGGAUCUACUGGUUUACCUAA are within error of each other in “pre-steady-state target cleavage rate” value: 0.00963 ± 0.0053 for the first, 0.0062 ± 0.0035 for the second.

Compared with CUUAAGGAGAGGAUCUACUGGGUUACCUA, CUUAUCCUCAGGAUCAACUGGGUUACCUAA is higher in “pre-steady-state target cleavage rate” value: 0.0123 ± 0.0056 for the first, 0.0489 ± 0.012 for the second.

CUUAAGGUCUGGAUGUACUGGGUUACCUAA and CUUAAGGAGUGGAUCUACUGGGUUACCUCA are within error of each other in “pre-steady-state target cleavage rate” value: 0.065 ± 0.027 for the first, 0.0359 ± 0.012 for the second.

CUUAACCUCUGGAUCUACUGGGUUACGAUA and CUUAAGCAUCUGGAUCUACUGGGUUACCUAA are within error of each other in “pre-steady-state target cleavage rate” value: 0.0968 ± 0.025 for the first, 0.153 ± 0.036 for the second.

Compared with CUUAUCCUCUGGAACUACAGGGUUACCUAA, CUUAUCCUCUGGAUCUUCUGGGUUACCUUA is lower in “pre-steady-state target cleavage rate” value: 0.142 ± 0.026 for the first, 0.0894 ± 0.017 for the second.

Compared with CUUAAGGAGUGGAUCUACAGGGUUACCAAA, CUUAACCUCUGGAUCUUCUGGGUUACCAAA is higher in “pre-steady-state target cleavage rate” value: 0.0277 ± 0.01 for the first, 0.0779 ± 0.018 for the second.

First: CUUAACGUCAGGAUCUACUGGGUUACCUAA
Second: CUUAACCUCUGGAUCUACUGGGUUACGCUAA
The “pre-steady-state target cleavage rate” value of the first is lower: 0.0483 ± 0.017 for the first, 0.138 ± 0.022 for the second.

Going from CUUAUCCUCUGGAUCUACUGGGUAACCUAA to CUUAACCUCUGGAUCUACUGGGGUUACCUAA, the “pre-steady-state target cleavage rate” value falls from 0.0929 ± 0.021 to 0.0375 ± 0.012.

Compared with CUUAUCCUCUGGAAGUACUGGGUUACCUAA, CUUAACCUCUGGAUCUACAGGGUAACCUAA is lower in “pre-steady-state target cleavage rate” value: 0.133 ± 0.021 for the first, 0.0519 ± 0.016 for the second.

First: CUUAACCUGUGGAUCUACUGGGUUUCCUAA
Second: CUUAGCCUCUGGAUCUACUGGGUUACCUAA
The “pre-steady-state target cleavage rate” value of the first is lower: 0.0399 ± 0.018 for the first, 0.218 ± 0.05 for the second.

First: CUUAUCCUCAGGAUCUACAGGGUUACCUAA
Second: CUUAAGGACUGGAUCUACUGGGUUACGCUAA
The “pre-steady-state target cleavage rate” value of the first is higher: 0.0828 ± 0.013 for the first, 0.0122 ± 0.0081 for the second.

Going from CUUAACCUCUCGUUCUACUGGGUUACCUAA to CUUAAGCUCUGGAUCUACAGGGUUACCUAA, the “pre-steady-state target cleavage rate” value falls from 0.094 ± 0.017 to 0.0647 ± 0.011.

CUUAAGGACUCGAUCUACUGGGUUUCCUAA and CUUAAGGACUGGAUGUACUGGGUUACCUAA are within error of each other in “pre-steady-state target cleavage rate” value: 0.00553 ± 0.0038 for the first, 0.0239 ± 0.019 for the second.

First: CUUAAGCUCUGGAUCAUCUGGGUUACCUAA
Second: CUUAAGCUCUGGAUCUACUGGGUUACCUCA
The “pre-steady-state target cleavage rate” value of the first is lower: 0.0304 ± 0.011 for the first, 0.0858 ± 0.025 for the second.

First: CUUAAGGUCUCGAUCUACUGGGUUACGUAA
Second: CUUAAGGUCUGGAUCUACUGGGUUACCUUAA
The “pre-steady-state target cleavage rate” value of the first is lower: 0.00877 ± 0.006 for the first, 0.0607 ± 0.015 for the second.

Compared with CUUAACCUCUGCAUCUACUGGGUUACCUAA, CUUAAGGUCAGGAUCUACUGGGUUACCAAA is lower in “pre-steady-state target cleavage rate” value: 0.185 ± 0.036 for the first, 0.0145 ± 0.0086 for the second.

Going from CUUAAGCUCUGGAUCUAUGGGUUACCUAA to CUUAUGCUCUGGAUCUACUGGGUAACCUAA, the “pre-steady-state target cleavage rate” value rises from 0.00978 ± 0.0041 to 0.0539 ± 0.012.

CUUAAGGAGAGGAUCUACUGGGUUACCUAAA and CUUAAGGUCUGGAUCUUCUGGGAUACCUAA are within error of each other in “pre-steady-state target cleavage rate” value: 0.0113 ± 0.006 for the first, 0.0121 ± 0.0065 for the second.

“CUUAAGGAGACGAUCUACUGGGUUACCUAA [g2:g19:cont:t1A]” and CUUAAGGUCUCGAUCUACUGGGUUACCUUA are within error of each other in “pre-steady-state target cleavage rate” value: 0.00616 ± 0.0033 for the first, 0.0125 ± 0.0049 for the second.

Going from CUUAUCCUCUGGAUCUACUGGGUUACUAA to CUUAAGCUCUGGAUCUGCUGGGUUACCUAA, the “pre-steady-state target cleavage rate” value falls from 0.16 ± 0.03 to 0.0325 ± 0.013.

CUUAAGGAGACGAUCUACGGGGUUACCUAA and CUUAACCUCUGGAUCAACUGGGUUACGUAA are within error of each other in “pre-steady-state target cleavage rate” value: 0.0104 ± 0.0052 for the first, 0.0219 ± 0.01 for the second.

Compared with CUUAUCCUCUGGAUCUACUGGGUUACCGAA, CUUAUCCUCUGGAUCAUACUGGGUUACCUAA is lower in “pre-steady-state target cleavage rate” value: 0.143 ± 0.039 for the first, 0.00499 ± 0.0038 for the second.

CUUAAGGUCUGGUUCUACUGGGUUACCUAA and CUUAACCGCUGGAUCUACUGGGUUACCUAA are within error of each other in “pre-steady-state target cleavage rate” value: 0.0719 ± 0.013 for the first, 0.0929 ± 0.016 for the second.

Going from CUUAACCUCUGGAUCUACUGGGUAUACCUAA to CUUAACGUCUGGAUCUACUGCGUUACCUAA, the “pre-steady-state target cleavage rate” value falls from 0.0924 ± 0.019 to 0.0153 ± 0.006.
